From the supplement of paper PMC11417369
The list shows a part of the results.

tested on: PfAP2-HC AP2 domain (GST-tagged); assay: gcPBM binding intensity (ln(normalized median fluorescence intensity)); higher = stronger DNA binding
Method in brief: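 After 1 h on an Agilent 4 × 180k array of primer-extended double-stranded 36-bp intergenic genomic probes and negative controls, bound GST-tagged P. falciparum DNA-binding domains were detected with Alexa488 anti-GST antibody and scanned at 488 nm. The domains had been expressed in E. coli, and binding took place in 1× PBS with 1% milk, 0.2 mg/ml BSA, 0.5% salmon testes DNA and 0.03% Triton X-100. Binding intensity is the highest Masliner-normalised natural-log median intensity across replicate spots of either probe orientation.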

Sequence	gcPBM binding intensity (ln)
TATTATTATTATTACACACACAATTATATTTACCCC [CACACA_site503]	10
GTATATATATATATATATATATATTTTTATTTATTT [CACACA_negctrl_site589]	9.51
AATATAAGTAGTACAGTGCATATAATAATTAGAAGA [GTGCAC_site9485]	9.89
GATTAAACACAAAGAAGTACGGACATAAAAAAAAAA [XGTACX_site3686]	9.73
TTGATTTATATTTAATGTACATTTTTACAGAAAATT [XGTACX_site2747]	9.53
CCATAAAAAGGATACACACACACACGCACATATATA [CACACA_site6550]	10.8
ATATATATATTATATGCACACGTTAAAATTTCATAT [CACACA_site4552]	9.71
TAAAAATATTAATAAACACACAATGAGATATTGAAT [CACACA_site3153]	9.83
AAATATAAAATTTATTGTACATTATATATAATATAT [XGTACX_site1416]	9.61
TGATATATTTATATTACACACTTAAACGAAAAAAAA [CACACA_site3021]	9.62
TATTATAATATTTATACACACATAATTTTGATAAAT [CACACA_site583]	9.65
ATATTATATATATAGGTGCGAGTATTTTATAAATAT [GTGCAC_site9889]	9.72
TAAGTATACACATACACACACACACTAATAAAAAAA [CACACA_site8035]	10.5
TATACACCCGGACACACACACATATATATATATATA [CACACA_site5030]	10.3
ACATATTATATAACTCGTACTCGTAAAATATGTTGT [XGTACX_site2240]	9.64
TTCTTCTGTTTTATTACACACCATTTTGCGTATACA [CACACA_site2070]	9.98
GTCATAAATGTACGCACACATACATAAACATATACA [CACACA_site650]	9.94
GTTCTTTTATATATTTGTACATATTTATATATATTG [XGTACX_site4078]	9.94
CATTCTTGTTTAAAAAGTACATAAACATATATATAT [XGTACX_site1751]	9.54
AAAAAAAATAAAGAGAAAAAAAAAAGAAAATTATAT [GTGCAC_negctrl_site550]	9.54
TAAATTAATATGTATCGTACAATATATAAAACGATG [XGTACX_site2818]	9.63
AATTTTATACGATAAACATGCAAATAAATAAATAAA [TGCATGCA_site227]	9.67

Sequence	gcPBM binding intensity (ln)
AAAGAAAAAAAAAACACACACACACCCATTCAATAT [CACACA_site38]	11.4
ACAGCCAATACGGAAACACACAAGTTATTTTATCAT [CACACA_site5507]	9.8
TATAATAATATTTATTGTACAATTAGTTTAATTCAT [XGTACX_site272]	9.35
TTTATTATATAAACATGTACACAATTTGGTATATTC [XGTACX_site3112]	9.66
TATATGCCTATAAGAAGTACTGTGTAATGTAATATA [XGTACX_site8089]	9.71
TAAACATAAATATGCACACATATACATATATTCATA [CACACA_site2667]	9.83
AAGAAAAATATATTTATATATATATATATTAAATAT [TGCATGCA_negctrl_site500]	9.48
CTACATAATAAAAAAAGTACATTCTAATAAATTGAC [XGTACX_site4504]	9.68
ACTAATAATTTGTCGGTGCATAAAATTATTTTTATT [GTGCAC_site9840]	9.74
AAATTATGCATCGAGGTGCGTCTTAAAATATAGTGG	9.65
ATATAAATTCAAATTACACACATTTATTTTTTTTAC [CACACA_site53]	9.82
ATGATAAAATTATGTAGTACATATTTGAATGTAAAT [XGTACX_site688]	9.85
ATATATGTAACATATTGTACATATATGTATGTATGT [XGTACX_site3281]	9.96
ATTCATAAAAGTTGTACATGCAATTTTTTTTTTTTT [TGCATGCA_site270]	9.48
ATTTTGTTATGAAACACACACATATATATATATATA [CACACA_site3650]	10
TAATTTCTTATGTAGTGTACAAATAATATATGATAT [XGTACX_site597]	9.43
AATATCTGTATATCCACACACATATATATATATATA [CACACA_site4987]	10.1
TAATCGGTAATATTAACACACACATTTATATATATT [CACACA_site8274]	10.4
GTATTAATAAAAATACGTACTTATTATTTATAATAA [XGTACX_site7672]	9.54
ATTATTCATATAACACGTACAAAACGAAAAACAAAT [XGTACX_site3873]	9.78
AAAAGGAGAAATATTGCACACGTGCAAAATGGTATG [CACACA_site4300]	9.98
AATATCACCACATTGTTACTATAATATATAAAAAAG [XGTACX_negctrl_site384]	9.64
